Assay results: publication PMC4336329 (PLoS ONE, 2015)
In all, about 310,000 compounds went through this assay and about 14,000 (4.5%) showed an effect of 50% or more. The effect is printed as a negative number. This is one part of the list.

biological target: human ether-à-go-go-related gene (hERG) potassium channel (human, UniProt Q12809); experiment: primary screen, population patch clamp on CHO cells stably expressing hERG
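Note: peak tail current of the secondary pulse compared with the same well before compound.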

human ether-à-go-go-related gene (hERG) potassium channel, sequence (Q12809 whole entry, looked up): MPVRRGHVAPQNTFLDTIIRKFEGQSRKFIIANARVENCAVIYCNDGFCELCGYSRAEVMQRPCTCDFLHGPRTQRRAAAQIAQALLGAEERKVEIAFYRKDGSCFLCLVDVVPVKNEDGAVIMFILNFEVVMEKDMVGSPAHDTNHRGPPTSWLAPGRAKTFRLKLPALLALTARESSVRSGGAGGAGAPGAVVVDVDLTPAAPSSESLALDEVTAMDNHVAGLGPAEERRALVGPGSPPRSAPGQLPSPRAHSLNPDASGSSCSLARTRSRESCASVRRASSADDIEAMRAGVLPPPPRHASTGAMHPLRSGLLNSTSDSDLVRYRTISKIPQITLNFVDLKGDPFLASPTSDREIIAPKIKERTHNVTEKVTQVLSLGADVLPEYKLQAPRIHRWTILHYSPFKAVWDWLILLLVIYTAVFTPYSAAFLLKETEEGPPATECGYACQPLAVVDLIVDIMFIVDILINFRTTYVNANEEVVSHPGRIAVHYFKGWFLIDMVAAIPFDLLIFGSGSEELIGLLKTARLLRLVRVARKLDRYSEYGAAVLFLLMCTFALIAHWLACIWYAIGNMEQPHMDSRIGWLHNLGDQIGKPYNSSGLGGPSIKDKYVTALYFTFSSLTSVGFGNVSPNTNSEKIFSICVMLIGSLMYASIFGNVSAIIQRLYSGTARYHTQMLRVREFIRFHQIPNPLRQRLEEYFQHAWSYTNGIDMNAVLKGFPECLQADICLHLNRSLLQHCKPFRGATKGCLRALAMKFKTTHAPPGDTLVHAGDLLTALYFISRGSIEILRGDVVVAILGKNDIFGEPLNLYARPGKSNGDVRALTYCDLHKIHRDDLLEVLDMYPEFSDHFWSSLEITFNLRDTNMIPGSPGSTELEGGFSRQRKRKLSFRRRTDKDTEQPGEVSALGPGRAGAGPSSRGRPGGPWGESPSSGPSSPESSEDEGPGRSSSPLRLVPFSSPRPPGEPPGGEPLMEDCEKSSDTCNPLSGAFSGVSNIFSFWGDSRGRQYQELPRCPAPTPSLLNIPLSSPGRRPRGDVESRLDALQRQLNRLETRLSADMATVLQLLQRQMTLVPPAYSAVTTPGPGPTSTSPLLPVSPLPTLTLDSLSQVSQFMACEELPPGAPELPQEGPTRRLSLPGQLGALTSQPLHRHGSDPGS

| SMILES | hERG current change (%, negative = inhibition) at 10uM |
| --- | --- |
| CC(C#N)Sc1ncnc2sc(-c3ccccc3)cc12 (stereo not drawn) | 13.3% |
| CCc1cc2c(=O)c(-c3ccc4c(c3)OCO4)coc2c(CN(C)C)c1O | 11.4% |
| O=C(CCN1C(=O)c2ccccc2S1(=O)=O)Nc1ccc(F)c([N+](=O)[O-])c1 | -4.44% |
| COC(=O)c1ccccc1C(=O)N1CCCC(CNC(=O)c2ccc(F)cc2)C1 (stereo not drawn) | 11.2% |
| NS(=O)(=O)c1cc(C(=O)N=Nc2c(O)[nH]c3ccccc23)ccc1Cl | 3.39% |
| Cc1cccc(NC(=S)N2CCC(c3nc4ccccc4o3)CC2)c1C | -15% |
| Cc1c(C)n(CCc2ccccc2)c2ncnc(NCCCO)c12 | -40.1% |
| O=C(CN1C(=O)NC2(CCCC2)C1=O)N1CCN(c2ccccc2Cl)CC1 | 14.5% |
| Cc1cccc(-n2ccnc2SCC(=O)O)c1C | 12% |
| COc1cc2[nH]c(=O)n(CCCC(=O)NCCc3ccccc3)c(=O)c2cc1OC | -8.67% |
| O=C(COc1ccccc1)NCc1ccccc1 | 4.64% |
| CCN(CC)CC#CC(C)OCOCC#CCOC (stereo not drawn) | 4.97% |
| O=C(NC1CCCc2ccccc21)C1CCCN(S(=O)(=O)c2cnc[nH]2)C1 (stereo not drawn) | 2.1% |
| CC1=NN(c2nc(-c3ccc(C#N)cc3)cs2)C(=O)C1 | 10.3% |
| COCCNC(=O)C(c1ccc(F)cc1)N(CCOC)C(=O)CCC(=O)Nc1ccccn1 (stereo not drawn) | 12.6% |
| COc1ccccc1NC(=O)CSc1nc(=O)n(Cc2ccncc2)c2c1CCCC2 | -20% |
| CCCCC(CCC(=O)NNC(=O)Cc1ccccc1)C(=O)O (stereo not drawn) | -4.26% |
| Cc1cc(-c2nnc3sc(-c4ccc(Cl)cc4Cl)nn23)n[nH]1 | 8.51% |
| O=C(NCCNC(=O)C1CC2CCC1C2)C1CC2CCC1C2 (stereo not drawn) | -3.7% |
| COc1ccc(-c2nn(CCC#N)cc2C(=O)Nc2cccc([N+](=O)[O-])c2)cc1OC | -57.9% |
| CSc1ccc(NC(=O)NCCN2CCc3ccccc3C2)cc1 | -43.6% |
| CC(C)CNC(=O)COc1ncnc2sccc12 | -37.4% |

| SMILES | hERG current change (%, negative = inhibition) at 10uM |
| --- | --- |
| CC(C)Oc1ccc(C(=O)NCc2cccnc2)cc1 | 8.89% |
| O=C(Nc1ccccc1)Oc1ccccc1N1CCOCC1 | -3.33% |
| CC(C)(C)c1cc(C(=O)NCc2cc(F)cc3c2OCOC3)n(Cc2ccccc2)n1 | 8.36% |
| Cc1ccc(NC(=O)COC(=O)Cn2cnc3c2c(=O)n(C)c(=O)n3C)cc1Cl | -29.2% |
| Cc1ccc(-c2nn(-c3cc(Cl)ccc3[N+](=O)[O-])c(=O)c3ccccc23)cc1C | 9.05% |
| O=C(CN1CCN(Cc2ccc3c(c2)OCO3)CC1)N1CCc2[nH]c3ccc(F)cc3c2C1 | -62.8% |
| Cc1nn(CC(=O)NCCCc2ccccc2)c(=O)c2cc3occc3n12 | 14.9% |
| Cc1cccc(NC(=O)c2sc(Cl)nc2-c2ccccc2)c1 | 28.4% |
| Cc1ccccc1C(=O)N1CCC(C(=O)NN2C(=O)NC3(CCC(C)CC3)C2=O)CC1 (stereo not drawn) | 4.33% |
| CC(O)CNc1nc2sc3c(c2c(=O)n1CCc1ccccc1)CCCCC3 (stereo not drawn) | 13.1% |
| CN(CC(=O)Nc1ccc(Cl)c(S(=O)(=O)N2CCOCC2)c1)C(=O)c1ccc(C#N)cc1 | -21.4% |
| O=C(O)C1=NN(c2c(F)c(F)cc(F)c2F)C(=O)CC1 | 24.4% |
| CN(C)S(=O)(=O)c1cccc(NC(=O)Cn2cc(C(F)(F)F)cc(Cl)c2=O)c1 | 3.98% |
| COC(=O)CNC(=O)c1ccccc1 | 16.4% |
| COc1cccc(C2CC(c3cccs3)=NN2C(=S)Nc2ccccc2)c1OC (stereo not drawn) | 6.78% |
| Cn1nc(C(=O)NC2CCCCC2)c2c1-c1ccccc1S(=O)(=O)C2 | 11.7% |
| CC(C)N(Cc1nnc(-c2ccccc2Br)o1)C(=O)c1cc(Cl)nc2ccccc12 | -24.9% |
| CC1CCN(C(=O)/C(=C\c2ccccc2F)NC(=O)c2ccccc2)CC1 | -52.7% |
| COc1cc(-c2nc3c[n+](CC(=O)c4ccccc4)ccc3n2C)cc(OC)c1OC.[Br-] | 0.461% |
| Cc1ccc(-c2nnn(CC(=O)N(c3ccccc3F)C(CC(C)C)C(=O)NCC3CCCO3)n2)cc1 (stereo not drawn) | -13% |
| NC(=O)C1CCN(c2nc(-c3ccc(Br)cc3)cs2)CC1 | 10.9% |
| COc1cc(C(=O)N=c2sc3c(C)ccc(OC)c3n2C)cc(OC)c1OC | 14% |

| SMILES | hERG current change (%, negative = inhibition) at 10uM |
| --- | --- |
| O=Cc1ccc(-n2cccn2)cc1 | 9.76% |
| CN(C)S(=O)(=O)c1cc(NC(=O)COC(=O)C2CSC3(C)CCC(=O)N23)ccc1Cl (stereo not drawn) | -23% |
| O=C(CSc1nnc(CNC(=O)c2c(F)cccc2F)o1)NCc1ccccc1Cl | 13.7% |
| Cc1noc(C)c1COc1ccc2ccc(=O)oc2c1 | 7.69% |
| O=C(O)C1C2CCC(O2)C1C(=O)Nc1ccc(F)cc1 (stereo not drawn) | 7.03% |
| COc1cccc(C(=O)Nc2cccc(NC(=O)c3ccccc3Cl)c2)c1 | -52% |
| Cc1ccc(NC(=O)COC(=O)c2ccc3c(c2)OCO3)c(C)c1 | 11.5% |
| CCOc1ccccc1N(CC(=O)NCc1ccncc1)S(=O)(=O)c1ccccc1 | -14.7% |
| Cc1csc(NC(=O)c2ccc(-c3ccc(Cl)cc3Cl)o2)n1 | 28.4% |
| CC(=O)c1cccc(NC(=O)C(C)OC(=O)CCN=C2NS(=O)(=O)c3ccccc32)c1 (stereo not drawn) | -6.54% |
| CN1c2ccccc2C(=O)/C(=C\Nc2ncccn2)S1(=O)=O | 12% |
| CCOC(=O)C1CCCN(CC(O)COCc2ccc3c(c2)OCO3)C1 (stereo not drawn) | -23.5% |
| O=C(CCC(=O)N1CCN(c2ccc(C(F)(F)F)cn2)CC1)c1cccs1 | 3.53% |
| Cc1occc1-c1nnc(SCC(=O)Nc2ccccc2)n1CCc1ccccc1 | -67% |
| COC(=O)CCCC(=O)N1CCCC(N(C)CCc2ccccc2)C1 (stereo not drawn) | -40.6% |
| O=C(O)c1ccc2nnn(O)c2c1 | -2.03% |
| CCOc1ccc(N2C(=O)CC(N(CCc3ccc(S(N)(=O)=O)cc3)C(C)=O)C2=O)cc1 (stereo not drawn) | 5.89% |
| COC(=O)c1sc(NC(=O)/C=C/c2ccccc2Cl)nc1C | 4.08% |
| O=C(O)CCc1ccc(-c2ccccc2)o1 | -2.53% |
| CCOCC(=O)N1CCC(Cc2ccccc2)CC1 | -13.4% |
| O=C(O)c1cc2c(s1)CCCC2 | 13.2% |
| C=C(C)CN(CC)C(=O)CN1C(=O)NC2(CCc3ccccc32)C1=O (stereo not drawn) | 19.7% |

| SMILES | hERG current change (%, negative = inhibition) at 10uM |
| --- | --- |
| Cc1ccc(C)c(NC(=O)CSc2nc3[nH]ncc3c(=O)[nH]2)c1 | 19.9% |
| CCC1Sc2ccc(S(=O)(=O)N3CCN(c4ccccc4)CC3)cc2NC1=O (stereo not drawn) | 17.4% |
| CC(C)[C@H](NC(=O)c1ccccc1Cl)C(=O)NC1CCCCCC1 | 12.2% |
| COc1ccc(C2CC(c3ccccc3)=NN2c2ccc(S(N)(=O)=O)cc2)cc1OC (stereo not drawn) | -6.92% |
| CC(=O)[C@]1(O)Cc2c(O)c3c(c(O)c2[C@@H](O[C@H]2C[C@H](N)[C@H](O)[C@H](C)O2)C1)C(=O)c1ccccc1C3=O.Cl | 17.3% |
| O=C(N=Nc1c(O)n(C2OC(=O)c3ccccc32)c2ccccc12)c1ccco1 (stereo not drawn) | 9.68% |
| COC(=O)CNC(=O)CCc1nnc(C2(c3ccc(Cl)cc3)CCC2)o1 | -4.74% |
| C/C(=N\OC(=O)c1ccccc1)c1cc(-c2ccc(Cl)cc2)no1 | 0.835% |
| Cc1cc(N2CC(C(=O)NCc3cccs3)CC2=O)ccc1C(C)C (stereo not drawn) | -19.5% |
| COc1cc2ccccc2cc1C(=O)NC1CCCCC1 | -27.7% |
| CC12CC(NC(=O)N1c1cccc(C(=O)NCc3ccccc3)c1)c1ccccc1O2 (stereo not drawn) | -6.4% |
| COc1ccc(CC(=O)Nc2ccc(C(=O)NC(C)(C)C)cc2)cc1 | 3.23% |
| CCC1CCCCN1C(=O)COc1ccc(F)cc1 (stereo not drawn) | 7.24% |
| COC(=O)C1=C(CS(=O)(=O)c2ccccc2)NC(=O)NC1c1ccc(O)cc1 (stereo not drawn) | 12.1% |
| CC(C)(C)NC(=O)NC(=O)Cn1ccsc1=N.Cl | 1.61% |
| Cc1ccccc1C(=O)NC1CCN(CC(=O)Nc2nccs2)CC1 | -14.4% |
| CCOc1cc(-c2c(C)c(C)nc(N)c2C#N)ccc1O | -0.923% |
| Cc1cccc2c(SCC(=O)NCC3CCCO3)nc(-c3ccc(F)cc3)nc12 (stereo not drawn) | -4.76% |
| Cc1ccc2nc(/C(C#N)=C\c3ccc(Oc4ccc(C(F)(F)F)cc4[N+](=O)[O-])cc3)[nH]c2c1 | 20.8% |
| COc1ccc(C2CC(c3c(-c4ccccc4)c4cc(Cl)ccc4[nH]c3=O)=NN2S(C)(=O)=O)cc1 (stereo not drawn) | 4.99% |
| CCCC(=O)Nc1cc2c3c(c1)CC(=O)N3CCC2 | -2.64% |
